Reference: the supplement of paper PMC9174493
The other results are listed elsewhere or left out. Single values of this set are uncertain. Values with irradiation are relative to irradiated vehicle.

Tests used:
[1] = test system: A549-Dual; experiment: NF-kB reporter (SEAP) activity, viability-corrected, relative to vehicle (fold change vs vehicle); higher = more activation of STING-IRF / NF-kB immune response reporter
[2] = test system: A549-Dual; experiment: ISRE reporter (Lucia luciferase) activity, viability-corrected, relative to vehicle (fold change vs vehicle); higher = more activation of STING-IRF / NF-kB immune response reporter
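Throughout, for NF-kB reporter (SEAP) activity, viability-corrected, relative to vehicle: viability correction based on the alamar blue assay, with concentrations leaving 10% survival or less dropped.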

SMILES	NF-kB reporter ([1]; 0.1 µM, irradiation: 8 Gy/4 fr)	NF-kB reporter ([1]; 0.1 µM, irradiation: none)	NF-kB reporter ([1]; 0.3 µM, irradiation: 8 Gy/4 fr)	NF-kB reporter ([1]; 0.3 µM, irradiation: none)	NF-kB reporter ([1]; 1 µM, irradiation: 8 Gy/4 fr)	NF-kB reporter ([1]; 1 µM, irradiation: none)	NF-kB reporter ([1]; 3 µM, irradiation: 8 Gy/4 fr)	NF-kB reporter ([1]; 3 µM, irradiation: none)	NF-kB reporter ([1]; 10 µM, irradiation: 8 Gy/4 fr)	NF-kB reporter ([1]; 10 µM, irradiation: none)	ISRE reporter ([2]; 0.1 µM, irradiation: 8 Gy/4 fr)	ISRE reporter ([2]; 0.1 µM, irradiation: none)	ISRE reporter ([2]; 0.3 µM, irradiation: 8 Gy/4 fr)	ISRE reporter ([2]; 0.3 µM, irradiation: none)	ISRE reporter ([2]; 1 µM, irradiation: 8 Gy/4 fr)	ISRE reporter ([2]; 1 µM, irradiation: none)	ISRE reporter ([2]; 3 µM, irradiation: 8 Gy/4 fr)	ISRE reporter ([2]; 3 µM, irradiation: none)	ISRE reporter ([2]; 10 µM, irradiation: 8 Gy/4 fr)	ISRE reporter ([2]; 10 µM, irradiation: none)
O=C(c1ccc(OCCN2CCCCC2)cc1)c1c(-c2ccc(O)cc2)sc2cc(O)ccc12 [Raloxifene]	0.912	0.996	0.996	0.966	0.951	1.38	0.945	1.18	0.9	0.955	1.03	1.1	1.26	0.953	1.08	1.03	1.13	0.749	0.982	0.981
Nc1nnc(-c2cccc(Cl)c2Cl)c(N)n1 [Lamotrigine]	0.978	0.927	0.917	0.922	0.904	0.947	0.832	1.11	1.13	1.03	1.05	1.01	1.01	0.962	0.98	0.969	1.04	0.968	1.12	0.988
CN(C)C/C=C/C(=O)Nc1cc2c(Nc3ccc(F)c(Cl)c3)ncnc2cc1OC1CCOC1 (stereo not given) [Afatinib (BIBW2992)]	0.868	1.02	0.891	1.13	0.835	1.05	0.782	0.777	0.764	0.793	0.921	0.746	1.03	0.73	0.846	0.717	0.805	0.672	0.743	0.916
O=C(O)C1CSCN1 (stereo not given) [Timonacic]	0.997	1.09	0.731	0.89	0.858	1.21	0.803	1.17	0.934	0.92	1.02	1.18	0.798	0.886	0.876	1.11	0.859	0.933	0.902	0.826
CNCc1ccc(-c2[nH]c3cc(F)cc4c3c2CCNC4=O)cc1.O=P(O)(O)O	1.01	1.09	1.04	1.28	0.844	1.07	0.798	0.993	0.763	1.04	0.844	1.08	0.906	1.06	0.761	0.98	0.532	0.719	0.499	0.674
COc1ccc(CC(C)(C)NCC(O)c2cc(O)cc3c2OCC(=O)N3)cc1.Cl (stereo not given) [Olodaterol hydrochloride]	1.2	1.41	1.01	1.3	1.35	1.01	1.51	1.02	1.29	0.949	1.18	1.35	0.976	1.15	1.1	1.02	0.95	1.13	1.29	1.05
CCOC(=O)N1CCC(=C2c3ccc(Cl)cc3CCc3cccnc32)CC1 [Loratadine]	0.963	1.26	1	1.62	1.33	0.991	1.34	0.984	0.896	1.08	0.943	0.834	0.847	0.962	0.783	0.917	0.767	0.971	0.909	2.02
CCOc1cc(C(CS(C)(=O)=O)N2C(=O)c3cccc(NC(C)=O)c3C2=O)ccc1OC (stereo not given)	0.874	1.12	0.878	1.05	1.16	0.879	1.22	0.984	0.704	0.442	0.922	1.12	0.837	0.931	1	0.926	0.711	0.825	0.754	0.796
CC(=O)OC12COC1CC(O)C1(C)C(=O)C(O)C3=C(C)C(OC(=O)C(O)C(NC(=O)OC(C)(C)C)c4ccccc4)CC(O)(C(OC(=O)c4ccccc4)C21)C3(C)C.O.O.O (stereo not given) [Docetaxel Trihydrate]	1.08	1.97	0.887	2.21	1.08	2.73	0.942	1.96	1.21	2.34	0.877	5.42	0.897	6.66	0.624	6.16	1.27	7.71	1.22	7.08
CC(CCC(=O)[O-])C1CCC2C3C(O)CC4CC(O)CCC4(C)C3CC(O)C12C.[Na+] (stereo not given) [Sodium cholate]	0.795	0.945	0.888	0.909	0.971	0.749	0.903	0.723	0.816	0.721	0.813	0.934	0.746	1.05	0.708	0.871	0.815	0.867	0.903	0.636
CCS(=O)(=O)O.COC(=O)c1ccc2c(c1)NC(=O)/C2=C(\Nc1ccc(N(C)C(=O)CN2CCN(C)CC2)cc1)c1ccccc1 [Nintedanib Ethanesulfonate Salt]	1.13	1.17	0.979	1.05	1.2	1.52	1.38	1.48	1.57	1.47	1.05	1.12	1.08	1.11	1.23	1.35	1.35	1.1	1.26	2.14
COc1ccc(C2OCC3C(c4cc(OC)c(OC)c(OC)c4)OCC23)cc1OC (stereo not given) [Magnolin]	0.937	0.839	0.923	0.695	0.877	0.737	1.05	0.789	0.714	0.83	0.96	0.748	0.798	0.55	0.711	0.609	0.738	0.753	0.631	0.702
CC(C)(CO)c1cc2cc(NC(=O)C3(c4ccc5c(c4)OC(F)(F)O5)CC3)c(F)cc2n1CC(O)CO (stereo not given) [Tezacaftor?(VX-661)]	0.957	1.27	0.913	0.907	0.965	0.945	0.981	0.935	0.949	0.932	1.02	1.3	1.06	0.935	0.97	1.22	1.2	0.902	1.09	1.11
CC(=O)O.CCNC(=O)C1CCCN1C(=O)C(CCCNC(=N)N)NC(=O)C(CC(C)C)NC(=O)C(CC(C)C)NC(=O)C(Cc1ccc(O)cc1)NC(=O)C(CO)NC(=O)C(Cc1c[nH]c2ccccc12)NC(=O)C(Cc1c[nH]cn1)NC(=O)C1CCC(=O)N1 (stereo not given) [Leuprolide Acetate]	1.05	1.13	1.1	0.982	0.887	1.45	0.983	1.3	0.975	1.06	1.17	1.06	1.23	1.04	1.1	1.16	1.12	0.897	1.13	1.17
COc1ccc2cc1Oc1ccc(cc1)CC1c3cc(c(OC)cc3CCN1C)Oc1c(OC)c(OC)cc3c1C(C2)N(C)CC3 (stereo not given) [Tetrandrine]	1.06	0.946	1.21	0.931	1.15	0.852	0.745	1.03	0.723	0.678	1.14	1.02	1.01	1.14	1.11	0.87	0.744	1.78	0.844	2.91
NC(=O)C[C@H](N)C(=O)O [L-Asparagine]	1.58	0.946	1.3	1.47	1.09	1.12	1	0.917	1.31	1.13	1.01	1.01	0.964	1.02	1.15	0.769	0.683	1.02	0.989	0.817
CCCC(=O)OC1(C(=O)CO)CCC2C3CCC4=CC(=O)CCC4(C)C3C(O)CC21C (stereo not given) [Hydrocortisone butyrate]	0.971	1.08	1.01	0.877	0.846	0.869	0.72	0.861	0.685	0.948	0.0771	0.306	0.0917	0.252	0.0502	0.184	0.0849	0.233	0.0666	0.245
COC1CC2CCC(C)C(O)(O2)C(=O)C(=O)N2CCCCC2C(=O)OC(C(C)CC2CCC(O)C(OC)C2)CC(=O)C(C)/C=C(\C)C(O)C(OC)C(=O)C(C)CC(C)/C=C/C=C/C=C/1C (stereo not given) [Rapamycin (Sirolimus)]	1.47	1.23	1.32	1.37	1.57	1.25	1.19	1.27	1.35	1.22	0.93	1.32	0.802	1.36	0.946	1.42	0.925	1.52	0.933	4.66
CN(C)CCN(Cc1ccc(Cl)cc1)c1ccccn1.Cl [Chloropyramine hydrochloride]	1.25	2.06	1.11	1.71	1.62	1.13	1.8	1.22	1.36	1.28	1.09	1.8	1.06	1.39	1.27	1.23	1.01	1.53	1.3	1.21
CC1CC2C(C(O)CC3(C)C2CCC3(O)C(=O)COC(=O)CCC(=O)O)C2(C)C=CC(=O)C=C12 (stereo not given) [Methylprednisolone hemisuccinate]	0.842	1.15	1.22	1	1.35	0.771	0.691	0.766	0.563	0.796	0.157	0.802	0.281	0.276	0.0917	0.268	0.0816	0.171	0.0588	0.196
COc1c(C)c2c(c(O)c1C/C=C(\C)CCC(=O)O)C(=O)OC2 [Mycophenolic acid]	1.2	1.86	0.807	2.3	1.18	1.41	1.77	1.55	1.22	1.55	1.16	1.81	0.982	0.972	0.176	0.608	0.663	0.304	0.0895	0.326
CN1C(C(=O)Nc2ccccn2)=C(O)c2sc(Cl)cc2S1(=O)=O [Lornoxicam]	1.62	1.41	1.49	1.27	1.27	1.33	1.48	1.27	1.65	1.21	0.987	1.13	1.15	0.934	0.981	0.975	0.999	0.935	1.31	0.893
CC1(C)OC2CC3C4CC(F)C5=CC(=O)C=CC5(C)C4(F)C(O)CC3(C)C2(C(=O)CO)O1 (stereo not given) [Fluocinolone Acetonide]	0.414	0.435	0.476	0.471	0.346	0.611	0.294	0.633	0.283	0.738	0.0359	0.178	0.0371	0.162	0.0379	0.253	0.0451	0.222	0.0409	0.234
